Experimental findings from the supplement of paper PMC11417369 are described below.

± gives the standard deviation of the averaged measurements. The list shows a part of the results.

This test concerns PfAP2-EXP AP2 domain (GST-tagged). The test can be described thus: gcPBM binding intensity (ln(normalized median fluorescence intensity)); higher = stronger DNA binding. Summed up:
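Using an Agilent 4 × 180k array, primer-extended double-stranded 36-bp intergenic genomic probes and negative controls were exposed for 1 h to GST-fused P. falciparum DNA-binding domains expressed in E. coli. Binding was carried out in 1× PBS with 1% milk, 0.2 mg/ml BSA, 0.5% salmon testes DNA and 0.03% Triton X-100, and protein was detected with Alexa488 anti-GST antibody and a 488 nm scan. Binding intensity is the highest Masliner-normalised natural-log median intensity across replicate spots of either probe orientation.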
On to “ACATAAAATAAATATACACACATATGTATATATTAT [CACACA_site3041]”, for which the “gcPBM binding intensity (ln)” value came to 8.22 ± 0.26.
With “ATAAAATATATATGCACACACATATATATTTCATAC [CACACA_site3547]” the figure was 8.49 ± 0.35; with “AAAAGAATTTAGAAGGCATGCACTTAAACATGGATA [TGCATGCA_site699]”, 9.13 ± 0.33.
Take “ATATATATATATATGTGTACTTATAAATATATCTGT [XGTACX_site4337]”: the “gcPBM binding intensity (ln)” value worked out at 10.1 ± 0.33.
The result for “ATATCCCATATGTAATGTACTTACACTTTCTTAATT [XGTACX_site7020]” reads 8.72 ± 0.39; that for “AATATTTAAAACAAATCACACATGTATCCATAAATG [CACACA_site5308]”, 8.38 ± 0.33; that for “TAAATATTTTATTGTACACACTTTTTATGAATGATG [CACACA_site5694]”, 8.93 ± 0.46.
The result for “AGGGAATAATATTAATGTACATATATGAACTTGTTT [XGTACX_site6089]” reads 8.71 ± 0.56.
The result for TCTTTTAAAAATTAAGTGCATGTCCTTATAACAAAA reads 8.54 ± 0.2; that for “TATAAAAAGGAAAAATAAAAATAAAAATAAAAATTA [CACACA_negctrl_site1822]”, 8.28 ± 0.46; that for “ATATTTATATATATATGTACATATGTGTGTTTTTAT [XGTACX_site3956]”, 8.74 ± 0.49.
Consider “AAAAAAATAATGTACACACACATATCTGTTTATATA [CACACA_site4270]”, for which the “gcPBM binding intensity (ln)” value stood at 8.49 ± 0.26.
The result for “TCATAAACATTATGCACACAAAAATAAAAAAAAATA [CACACA_site1115]” reads 8.73 ± 0.18.
The result for “ATATATAACTTTTCTTAACACACAAAAAACAAAAAT [CACACA_site8748]” reads 8.69 ± 0.51; that for “GTATTCTACAGACACATACACACATATATATATATA [CACACA_site3427]”, 10.1 ± 0.22; that for “AAAAAATAATTGAAGTGTACGTACAATGATTTTACT [XGTACX_site7663]”, 8.77 ± 0.35.
Consider “TAAACCTTAAAATATTTCTCATGTTTAACTTATATT [GTGCAC_negctrl_site233]”, for which the “gcPBM binding intensity (ln)” value was 8.52 ± 0.44.
With “AAGAAAAACTTTACGTGTACCAAACATCCTGCCGAC [XGTACX_site4895]” the figure was 8.58 ± 0.54; with “GGGAGAAATTTATACATACACACATATATATATTAT [CACACA_site4039]”, 8.71 ± 0.45.
The result for “TTATAATATTGTGGTATACACACCTTACAAAAAGGT [CACACA_site2878]” reads 8.52 ± 0.39.
The result for “TATATTCTACAAGAATTATGAATTGTCAGACCAAAT [CACACA_negctrl_site1101]” reads 8.29 ± 0.38; that for “TTATATACCCTAATATGTTTTATTATTATTATATAT [TGCATGCA_negctrl_site6]”, 8.35 ± 0.34; that for “TACAATGTGGATAATTGTACAAAACCGATAAGAGGG [XGTACX_site6453]”, 9.19 ± 0.33.
TGTTCTGAACGGTTCATGCACTTTTTTTTGTTAATT: the “gcPBM binding intensity (ln)” value stood at 8.69 ± 0.45.
The result for “CTGTTTTTGTTTTAAAGTACATTGTTCAATATACAT [XGTACX_site5288]” reads 8.79 ± 0.23; that for “TTTATTTTCATATGAACACACATATATATATTATAA [CACACA_site2369]”, 8.82 ± 0.49; that for “ATATAAATAATATAAATACACACTAAAAAAAATATA [CACACA_site542]”, 8.72 ± 0.51.
The result for “AACTAAACAAAAGTTACACACATCATACGATATTAT [CACACA_site3180]” reads 8.3 ± 0.37; that for “ATAATTTATATTCAGAAACACACGAAAAAAAAAAAT [CACACA_site1296]”, 8.84 ± 0.45; that for “ATGTTAAGAATAATTAGTACTTACATATGTATAATA [XGTACX_site4419]”, 8.54 ± 0.32.
Regarding “TATATTATATACGTCTGTACACAAATGAGAGGTAAA [XGTACX_site5538]”, the “gcPBM binding intensity (ln)” value is 8.88 ± 0.43.
With “ACCATATAATTTTTTTGTACATAATGATTTTTTTTT [XGTACX_site1104]” the figure was 8.71 ± 0.4.
For the sequence “AATAATATATATTGTACACACAAAATGGGAAAAAAA [CACACA_site5100]”, the “gcPBM binding intensity (ln)” value was determined as 8.98 ± 0.42.
With “AAAAAATAATAATAAAATGAATAGATATGTATTTAT [TGCATGCA_negctrl_site210]” the figure was 8.4 ± 0.32; with “TTATAAAAAAAAAAAAAAAATATATATATATATATA [XGTACX_negctrl_site592]”, 10.3 ± 0.13.
With “ACAAAATGTAAATAAACACACATATATATATATATA [CACACA_site1281]” the figure was 10.1 ± 0.39; with “ATATATATATATATTTGTACAGAAAATATTTTAATA [XGTACX_site3706]”, 10 ± 0.21; with “AGCAGAGTTACAATTTGTACGTAATTGATATAGATA [XGTACX_site4051]”, 8.75 ± 0.48.
The result for “AACATATTATCTTGTGAAAATAATATAAGTCACATT [TGCATGCA_negctrl_site339]” reads 8.29 ± 0.38.
With “TATATAAACCCGTACACACACATATATGTATATATA [CACACA_site3507]”, the “gcPBM binding intensity (ln)” value stood at 8.91 ± 0.25.
“TTACTCATGAAAGATACACACATTCATTATATATAT [CACACA_site3252]”: the “gcPBM binding intensity (ln)” value came out at 8.7 ± 0.26.
In the case of “AGACATAAGATAATTACACACAATACATCCCTATAT [CACACA_site2227]”, the “gcPBM binding intensity (ln)” value amounted to 8.61 ± 0.42.
“TACTTCTACAAGAGAAGTACAATATTTTTTATATTA [XGTACX_site8351]”: the “gcPBM binding intensity (ln)” value worked out at 7.95 ± 0.32.
“AATAAAAATTTACTTTGTACACATATTAAATTCAAT [XGTACX_site1957]”: the “gcPBM binding intensity (ln)” value was 8.18 ± 0.18.
The result for “AAATTTACAATACATTGTACATATTAATAATATTCC [XGTACX_site3646]” reads 8.34 ± 0.36.
The result for “TTAACGTAAAATATAGTGCATAGTATCATATTGATA [GTGCAC_site9527]” reads 8.56 ± 0.3; that for “CAATCAAAGAAACACACACACACCTAAACATAAAAG [CACACA_site2756]”, 8.74 ± 0.61; that for “TGTAGTTTGTCCCATGCATGTTCCATTAAAATATAT [TGCATGCA_site854]”, 9.27 ± 0.38.
For the sequence “AATGTATATATGTAATGTACATATATAATGTATATA [XGTACX_site6510]”, the “gcPBM binding intensity (ln)” value was 8.48 ± 0.26.
The result for “AATGTAAAATATATGTGTACATATGTTTATATATAT [XGTACX_site2216]” reads 8.71 ± 0.23; that for “AAATGTGTTTATTTAACACACAAAAGAAAAAATATA [CACACA_site6993]”, 8.55 ± 0.43.
With “GTGTGTTGTATATACTGTACATACTTTATATATAGT [XGTACX_site1876]” the figure was 8.63; with “TATAACAAGTAATGTTGTACATTGTATTATGTAATA [XGTACX_site6372]”, 8.28 ± 0.3.
With “AGATATATTATTAGGTGTACTATAAAATAAATTCAC [XGTACX_site221]”, the “gcPBM binding intensity (ln)” value stood at 8.55 ± 0.47.
Consider “CGAACAAACAAATAAACACACAAAAAAAGATATATA [CACACA_site6944]”, for which the “gcPBM binding intensity (ln)” value turned out to be 8.72 ± 0.57.
For “AAAAAAAATTAGGAAACATGCATGTCCCGATAAATA [TGCATGCA_site149]”, the “gcPBM binding intensity (ln)” value came out at 9.16 ± 0.2.
With “AAAATCAAGTAGTATAAAGTAAGTATCATAAAAATA [CACACA_negctrl_site1554]” the figure was 8.71 ± 0.32.
For the sequence ATAATAAAATGGAGAGTGCATACATGTTTATTTTAT, the “gcPBM binding intensity (ln)” value was determined as 8.93 ± 0.33.
Take “GTACACTAATTATGTGCACACAAATTAAAGGTCTAC [CACACA_site146]”: the “gcPBM binding intensity (ln)” value came to 8.88 ± 0.19.
The result for “TATGGAAGAAAATATACACACAAAAAAAAAAAATGT [CACACA_site1486]” reads 8.79 ± 0.48; that for “AATTTATTATTTGTATGTACTCATATGATTCACTTA [XGTACX_site2797]”, 8.79 ± 0.42.
With ATACTTTTATTTTTGGTGCATATATCATGTAGACGT the figure was 9.025 ± 0.035; with “AAATGAAATAAATGTAGTACACATATACAATATATA [XGTACX_site6951]”, 8.62 ± 0.22; with “TGTATATCATATATTTGTACTCAATTAATATAAACA [XGTACX_site3970]”, 8.38 ± 0.38.
The result for “TATTTTTATACAATTTAACACGGGTTATAAAATGTA [CACACA_negctrl_site566]” reads 8.34 ± 0.45; that for “ACATCTAATTTGTATACACACAATAATAAATGGTGA [CACACA_site824]”, 8.37 ± 0.38; that for “TTGTATATATGACTTTTTTATATTTCAATTTTGTGC [CACACA_negctrl_site296]”, 8.34 ± 0.34.
With “TATATATATTTATAATGTACATATTTTTTTTTATTT [XGTACX_site4761]”, the “gcPBM binding intensity (ln)” value was found to be 8.71 ± 0.37.
With “GAGATAAAATAAAACACACACATATATTTATATAAC [CACACA_site7098]” the figure was 8.75 ± 0.42.
The result for “TATTAATTTTTAAACATAATTTTTCGTATAATATAT [CACACA_negctrl_site762]” reads 8.18 ± 0.38; that for “TTTACTTTCTTATTTTCACACATTTAAAAAAAAATT [CACACA_site5949]”, 8.62 ± 0.49; that for “TTTTTATTAAAATGTATTTTAGGAAAAAACAAAAAA [XGTACX_negctrl_site437]”, 8.23 ± 0.45.
With “TTCCCTTTTGTAAAATGTACATATATATTTAAACAA [XGTACX_site3263]” the figure was 8.7 ± 0.38.
With “TAAGTTCCCTTTGAATGTACATATAATGAAAAGAAA [XGTACX_site826]”, the “gcPBM binding intensity (ln)” value came out at 8.76 ± 0.37.
With “AAAAAACTTTTAAGCACACACATAGATAATATAGAT [CACACA_site6835]” the figure was 8.88 ± 0.58; with “TTTTTTTTTTTTGTCACACATATTTGTATTAATCAT [CACACA_site5235]”, 8.48 ± 0.61.
Consider “CAACATTTGAAACACACACACATACAAACAAACAAA [CACACA_site3306]”, for which the “gcPBM binding intensity (ln)” value worked out at 8.89 ± 0.47.
With “TGAAATGGAAACAACTGTACAAAATAAATATGATAT [XGTACX_site1311]”, the “gcPBM binding intensity (ln)” value was determined as 8.98 ± 0.53.
With “AATATTAACAATCGCACACATATTATTTTTCCAAAA [CACACA_site4982]” the figure was 8.54 ± 0.4.
With “ATATAAATATAGCATACACACAAAAAAATAAAATAA [CACACA_site2333]” the figure was 8.78 ± 0.52; with “TAAACAAAATATATATGTACATATATATATATATAT [XGTACX_site6502]”, 9.97 ± 0.42; with “CATTAATAACAAAGTTGTACAAGATAATATTATATG [XGTACX_site6832]”, 8.96 ± 0.31.
The result for “ATCTAGCCATTTTTTAGTACACATAAATAAAAAAAA [XGTACX_site1257]” reads 8.715 ± 0.007.
Regarding “TTTTATTTGACAAGCACACACTTAAATATATTTATA [CACACA_site7557]”, the “gcPBM binding intensity (ln)” value was 8.6 ± 0.45.
Take “ACATAAGAAGTTATATGTACATATATTTTTTAAATT [XGTACX_site8078]”: the “gcPBM binding intensity (ln)” value came to 8.4 ± 0.24.
The result for “AAAACATTTTCAAACTGTACACATAGAACTATGCAT [XGTACX_site4087]” reads 8.61 ± 0.35; that for “TACACAAGAAAATTCACACACACACGGATATTTATA [CACACA_site7765]”, 8.66 ± 0.47; that for “ACGTACTGCCCTAAAGTGCATATATAATATAAACGA [GTGCAC_site9911]”, 8.66 ± 0.24.
With “GTATCGAAGTAAATACGTACTTAAATATGTTTAAAA [XGTACX_site1353]” the figure was 8.34 ± 0.32.
